Data on ten compounds can be found in the antibiotic and cytotoxicity screens of Wong et al. (2023).

The list shows a part of the results.

For the test, the system named is HepG2. In words: cytotoxicity call (relative viability < 0.9). Particulars: 10 µM.
For `C[C@H]1CN([C@@H](C)CO)C(=O)c2c(c3ccccc3n2C)-c2ccccc2CO[C@@H]1CN(C)Cc1ccccc1C(F)(F)F`, the cytotoxicity call was “inactive”. Under `C[C@@H]1CCCCO[C@@H](CN(C)C(=O)Nc2ccc3c(c2)OCO3)[C@@H](C)CN([C@H](C)CO)C(=O)c2cc(NC(=O)CCCCCC(=O)Nc3ccccc3N)ccc2O1` stands “inactive”; under `C[C@@H]1CN([C@H](C)CO)C(=O)c2ccccc2-c2ccccc2CO[C@@H]1CN(C)Cc1ccc(C(F)(F)F)cc1`, “inactive”; under `COc1ccc2c3c([nH]c2c1)[C@H](CO)N(C[C@]13CCN(CC1)C(=O)c1ccccc1F)C(=O)Nc1ccccc1F`, “inactive”. Consider `O=C1O[C@H](c2ccccc2)[C@H](c2ccccc2)N2[C@H]1[C@@H](C(=O)NC[C@@H](O)c1ccccc1)[C@]1(C(=O)Nc3ccc(C#CC4=CCCCC4)cc31)[C@H]2c1ccccc1OCCO`, for which the cytotoxicity call was “active”. With `CN(C)c1nc2ncnc(N)c2[nH]1`, the cytotoxicity call is “inactive”. As for `CO[C@H]1CN(C)C(=O)c2cc(NS(C)(=O)=O)ccc2OC[C@H](C)N(C(=O)C2CCOCC2)C[C@@H]1C`, the entry is “inactive”.

For `C[C@H]1CN([C@@H](C)CO)C(=O)Cc2cc(NS(C)(=O)=O)ccc2O[C@H]1CN(C)Cc1ccc(C(=O)Nc2ccccc2N)cc1`, the cytotoxicity call is “inactive”. Under `C[C@H]1CCCCO[C@H](CN(C)S(=O)(=O)c2ccc(F)cc2)[C@@H](C)CN([C@@H](C)CO)C(=O)c2cc(NC(=O)CCC(F)(F)F)ccc2O1` stands “inactive”; under `COc1ccc(CC(N)C(=O)NC2C(CO)OC(n3cnc4c(N(C)C)ncnc43)C2O)cc1.Cl.Cl` (stereo not given), “active”.
